Test results as given in patent US20260008856A1, “METHODS OF TREATING DISEASE USING ANTI-IL1RAP ANTIBODIES AND ANTIBODY DRUG CONJUGATES” (Bluefin Biomedicine, Inc., priority 2022, published 2026).

How the values were obtained:
Karpas 299 = experiment: Flow cytometry binding to endogenous cell line Karpas 299; type: cell-based, human; design: key: (−): No binding; (+): Weak binding; (++): Moderate binding; (+++): Strong binding; details: primary antibody 1 ug/ml
Method: (§1) Staining for flow cytometry was performed in 1× cold PBS with 0.5% BSA. Primary antibodies (1 ug/ml) were incubated with live cells on ice for 30 minutes, after a brief wash, cells were incubated with Alexa Fluro® 488-conjugated anti-human IgG secondary antibody @1:1000 (709-546-149, Jackson ImmunoResearch). Acquisition of the data was performed on a MACSQuant® Flow Cytometers (Miltenyi Biotec) and analyzed with FlowJo software.
(§2) Over 1,000 hits were identified that bind strongly to CHO-human IL1RAP, but not parental CHO cells. 68 clones were selected for molecular cloning. Based on unique CDR3 sequences from the heavy chain variable domain, 35 antibodies from 13 families were confirmed by binding in IL1RAP positive cell lines EOL1 and Karpas 299 (see Table 8) by flow cytometry (MACSQuant® www.miltenybiotec.com).

EOL-1 = experiment: Flow cytometry binding to endogenous cell line EOL-1; type: cell-based, human; design: key: (−): No binding; (+): Weak binding; (++): Moderate binding; (+++): Strong binding; details: primary antibody 1 ug/ml
Method: as §1, §2

| Molecule | binding to Karpas 299 by flow cytometry (Karpas 299) | binding to EOL-1 by flow cytometry (EOL-1) |
| --- | --- | --- |
| 17E9_15B1: human anti-IL1RAP antibody, VH SEQ ID NO: 100, VL SEQ ID NO: 103 (antibody, V domains shown) VH: [about 120 residues cut from this listing] VL: DIQMTQSPSSLSASVGDRVTLTCRASQNIRSYLNWYQQKPGKAPKLLIFAASSLPSGVPSRFSGSGSVTDFTLTVSSLQPEDFATYSCQQSYSTPYTFGQGTKLEIK | (+++) | (+++) |
| 40C3_22B6: human anti-IL1RAP antibody, VH SEQ ID NO: 158, VL SEQ ID NO: 160 (antibody, V domains shown) VH: EVQLVESGGGLVQPGGSLRLSCAASGFTLSFYWMTWVRQAPGKGLEWVANIKQDGNEKNFVDSVKGRFTISRDNAKKSVFLQMNSLRAEDTAVYYCAREGYFGSGYFDYWGQGTLVTVSS VL: [about 100 residues cut from this listing]HTFGQGTKLEIK | (+++) | – |
